# Test results taken from the supplement of paper PMC10126150.
# Values marked as one replicate rest on one cluster of the flow cell; about a third of the high ones do not repeat.
# System: ATP
# Assay: switch fluorescence ratio, 500 uM ATP over buffer (Cy3 cluster intensity, sum of 5 cycles each) (fold (ratio)); higher = stronger signal-on switching upon ATP binding; sequences stand for … in TCGTCGGCAGCGTCAGATGTGTATAAGAGACAGTTTTTTTTTTTTTTTTTTTTTTTTT…TC
# Conditions: aptamer strand: ATP DNA aptamer (quencher-CACCTGGGGGAGTATTGCGGAGGAAGG + anchor), 100 nM annealed; ATP concentration: 500 uM; one replicate
# How it was run: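 Between each of five buffer/ATP cycles, the flow-cell was stripped with NaOH and re-annealed. Each cycle imaged Cy3-labelled switching-strand clusters, annealed to 100 nM quencher-labelled ATP aptamer on a modified Illumina MiSeq flow-cell, first in selection buffer and then after 15 min with 500 uM ATP at 22 °C. The fluorescence ratio is summed target-cycle over summed buffer-cycle Cy3 intensity per cluster, averaged per switch-domain sequence, with clusters outside 100-1000 RFU excluded.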
# 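Also: ATP exposure 15 min at 22 °C before imaging.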
row,Sequence,switch fluorescence ratio
1,GGTAGACTTA,1.01
2,GGTTGTACA,0.971
3,TTTACGTTCT,0.976
4,AGGATATATA,1.02
5,ACTGAGCCGA,1.06
6,CTAACCTAT,0.99
7,TTTCAACGAC,1.05
8,GAGGACCC,1.08
9,AAACTCTCTT,1.02
10,GCCCTTCCGC,1.38
11,TAGGCGAGGT,1
12,TGGGTTAAAC,0.952
13,AGTGCTATTA,1
14,ATTATACCAA,1
15,CATGACTGGT,0.987
16,GTAGACGGGA,0.989
17,TTACATGGTT,1.01
18,AGGACCGATT,0.998
19,TGATTACCAA,1.36
20,ATGGTTATGA,1.01
21,CCGGACTGTG,0.996
22,ATACTCACTA,1.17
23,TTACCGTGGT,1.01

row,Sequence,switch fluorescence ratio
1,GGAAGGTTAA,0.983
2,TTCATAATTG,1.04
3,CGTGCAATTA,2.33
4,GAAAATTGCG,1
5,TCGGGGTAGT,1.01
6,TCGCGGTAGC,1.01
7,GCTGAGGTGG,1.03
8,CACCCTTTAT,0.968
9,CGCTGTGACA,0.975
10,TGAGGGTCAG,1.02
11,TGACTTTAAC,0.973
12,AGCCTCAATC,1.53
13,GCAGTACGTG,1.22
14,GGGATAGCTT,0.964
15,TAGCTGGTAG,1.02
16,TATGGACATC,1.01
17,TCAAGGGTGG,1.03
18,TGCTCTGGGT,1.04
19,GTGCCAGCGA,0.994
20,CTCACCGCCC,1.9
21,CCTAAGTGAT,1.4
22,CATAGTAGAC,1.12
23,CGTTACTACC,1.27

row,Sequence,switch fluorescence ratio
1,TCATGGTGAC,0.988
2,ACGGGGCGAT,1.43
3,GATTATATTA,0.984
4,CCCGGCTAAG,1.06
5,TGGGGGCCT,1.01
6,TTATCGTGGC,0.994
7,CCAGCCCGCA,3.23
8,TGTGACACAG,0.949
9,AAACCAGCGG,0.972
10,GCCCCACTCT,0.978
11,GGGCTCATGA,0.964
12,CAATTATAGT,0.997
13,GAGTTACACC,1.08
14,TATGTAAGAA,0.986
15,AAAAGCAGAT,0.999
16,AGGTGGTGTT,0.958
17,CCAGTGCGTA,1.04
18,TGGGTCCACA,0.979
19,GGACACCTTA,0.996
20,CTAGCAGTGT,0.998
21,TCCTTAATAG,1.15
22,AGCCATGAGC,0.985
23,ATAACGACAT,1.08

row,Sequence,switch fluorescence ratio
1,AATCGCTTGC,1.08
2,CTGTGAACGA,1.02
3,CTGCTAACGA,1.26
4,TCCGTGGATC,1.15
5,TGTCATCAGC,1.01
6,TATTAGAGT,1.04
7,TATACTCCGA,1.03
8,AATATGGAAG,1.01
9,GGTTCTAGAA,0.942
10,CTATCCAAAC,1.21
11,TAGGTGCGTC,0.965
12,CATGACCCGG,1.02
13,TGGGTTCTAA,1.05
14,CGGGGTCGCG,0.982
15,CACAGCTCTT,2.72
16,TGTCAAAG,1.01
17,GTCTGGCAAT,1.05
18,TTGACTAG,0.93
19,TGAGTTCTAT,0.993
20,TTTTCAAGAT,1.08
21,TCGGTAACCG,0.988
22,CGCTATCGTC,1.05
23,AGACCTTAG,1.03

row,Sequence,switch fluorescence ratio
1,TAGAGTGAGT,0.964
2,TCGACATGCT,1.06
3,CATTTGCTTA,1.04
4,ATTTCTAAGT,0.972
5,TCCGCGGTAT,2.94
6,ATGCGAGATT,1
7,TCTGTTAGGC,1.12
8,TCAACAGCGA,1.04
9,TTCTGAGTAG,1.01
10,TATTCTCCAT,0.986
11,CTTGAGAAAT,1.06
12,TTCTTAAGTC,1.05
13,TCAAATACGG,1.27
14,CTATGGGTAG,1
15,TTTGGTATC,1
16,CAACGCGTA,1.08
17,GCTTCGGGG,0.996
18,TTCGATGAGT,0.964
19,TCAACGACGG,1.03
20,AGGGTCCTT,1.01
21,TAGTAGGTAA,1.01
22,CCAGCGAAGG,1.07
23,TGTACTGGGA,1.04

row,Sequence,switch fluorescence ratio
1,ACTGGCACGC,1.13
2,GTTTTGAACT,1.05
3,CGCTGATTGA,1.04
4,TTCTCTACTG,1.02
5,GATGATTACC,1.04
6,GATGTTCGTC,0.978
7,GCTTGCTGGA,0.999
8,CGTACTAGTT,0.968
9,TTTTTTAT,1.03
10,CCGACACCCC,1.41
11,GTCGATGCTT,1
12,ATTAGCGCG,0.983
13,CCCTGCGTCG,0.994
14,AGTGAGGACA,1.05
15,GAATTTGCAT,0.974
16,ACTTTCTACG,2.04
17,CGCAGACTTA,1.19
18,CGCGGGGTCG,0.941
19,TCACATTCGC,1.09
20,TCCCCATACA,1.07
21,ATTGCTAATG,0.981
22,AGGATGGCGG,0.963
23,CACTACCGCC,1.22

row,Sequence,switch fluorescence ratio
1,TACTGGCCAT,0.97
2,GCTTCTTTTA,0.986
3,CGTACGTTCA,1.03
4,GCCCCTGTCA,0.966
5,TCATACTGTC,1.01
6,GTGATTAGAG,1.01
7,AATCCGGTA,1.05
8,TGGTGTCAAC,0.945
9,GGCCTTGAGG,0.988
10,AGCTTAATGT,0.944
11,GTGCGGGGCC,0.995
12,CATCCGGAAG,2.68
13,CGCGGCATTC,3.19
14,CGGTAGCGTA,0.957
15,CTATGTGTCC,0.999
16,AAAAGACCGG,0.917
17,TAAGAAGTTC,0.974
18,TGACGGCATT,1.04
19,CATGACATGT,0.99
